A compilation of properties of binary mixtures (doi:10.1021/acs.jced.9b00738)
The densities may have been worked out from excess volumes.

Test: xn = mol fraction of the nth substance listed
Details: 100 kPa

CCCC[N+]1(C)CCCC1.O=S(=O)([N-]S(=O)(=O)C(F)(F)F)C(F)(F)F + CCOC(=O)OCC
mass density [kg/m3]
Details	293.15 K	298.15 K	303.15 K	308.15 K	313.15 K	318.15 K	323.15 K
x1 = 0.0251	1002.4	–	991.3	–	980.2	974.5	968.7
x1 = 0.0556	–	1027.9	1022.2	1016.9	1011.3	1005.6	1000
x1 = 0.1001	–	1067.3	1061.7	1056.4	–	1045.5	–
x1 = 0.1506	1112.1	1106.9	1101.5	1096.5	1091.1	1085.9	1080.6
x1 = 0.2	–	1141.5	–	1131	1126	1120.5	1115.2
x1 = 0.2973	1202.1	1197.1	1192	1187.2	1182.3	1177.3	1172.4
x1 = 0.349	1226.8	1222	1217	1212.3	1207.5	1202.6	1197.9
x1 = 0.4	1248.5	1243.8	1238.7	1234.2	1229.5	1224.7	1220.1
x1 = 0.4998	–	1280.8	1276	–	1266.8	1262.1	1257.4
x1 = 0.6002	1316.2	1311.4	1306.6	1302.1	1297.5	1293	1288.5
x1 = 0.6985	1341.1	1336.6	1332	1327.7	1323.1	1318.5	1313.8
x1 = 0.8006	1363.2	1358.8	1354.1	1349.7	1345.3	1340.8	–
x1 = 0.8934	–	1376.2	1371.7	–	1363.1	1358.6	1354.2
x1 = 1	1398.4	1393.8	1389.4	1385.3	1380.9	1376.5	1372.2

CCOC(=O)OCC + CCCC[N+]1(C)CCCC1.O=S(=O)([N-]S(=O)(=O)C(F)(F)F)C(F)(F)F
x2 = 0
Details	mass density [kg/m3]
293.15 K	974.6
298.15 K	969
303.15 K	963.2
308.15 K	957.7
313.15 K	951.9
318.15 K	946
